Test results taken from PubChem BioAssay AID624296 (National Center for Advancing Translational Sciences (NCATS), 2012).
About 9,900 (2.8%) of roughly 350,000 compounds were called active. Inconclusive results, whose numbers are uncertain, are shown with a selection of clear calls. Calls come from the whole dose curve; as a rule, active = well fitted activation curve with a large enough effect; inconclusive = small, poorly fitted or top-dose-only effect; inactive = no such curve, though single readings can be large or run the other way. No potency is given beside an inconclusive call; the fits are too rough.

Test: A quantitative high throughput screen for small molecules that induce DNA re-replication in MCF 10a normal breast cells. Note: nearly all actives have a fitted effect of over 50% in size.
Settings: MCF 10A DNA re-replication, Hoechst nuclear intensity, 48 h; series mostly up to 46.1 µM
Potency is the fitted concentration of half-maximal effect; tags give direction and shape of the fitted curve.

SMILES	Potency
COc1cccc(/C=C2\Sc3ccc(C(=O)NCC4CCCO4)cc3N(C)C2=O)c1 (stereo not drawn)	inconclusive [activator, single point]
CCOc1ccccc1NC(=O)c1ccccc1-c1nc(-c2ccccc2OC)no1	inconclusive [activator, partial curve, poor fit]
CCOC(=O)CSc1nnc([C@H](CC(C)C)NC(=O)OC(C)(C)C)o1	inactive
CC(C)(C)[C@H]1C=C(C(=O)N2CCN(Cc3ccc4c(c3)OCO4)CC2)O[C@@H](OCc2ccc(CO)cc2)C1	inactive
COc1ccc(CC2(CO)COc3ccccc3C2=O)cc1 (stereo not drawn)	inconclusive [activator, single point]
CCOC(=O)c1sc(=NC(=O)c2cccc(OC)c2)n(C)c1C	inconclusive [activator, partial curve, poor fit]
COc1ccc(S(=O)(=O)NCC2(N3CCOCC3)CCCCC2)cc1OC	inconclusive [activator, single point]
CN(C)CCNC(=O)c1ccc2c(=O)n(Cc3ccc(Cl)cc3)c(=S)[nH]c2c1	inconclusive [activator, partial curve, poor fit]
NC(=O)c1c(NC(=O)CSc2nnc(-c3ccco3)n2N)sc2c1CCCC2	inconclusive [activator, single point]
COc1ccccc1NC(=S)N1CCN(c2ccc(F)cc2)CC1	inconclusive [activator, partial curve, poor fit]
O=[N+]([O-])c1cc2c(cc1[N+](=O)[O-])OCCOCCOCCOCCO2	inactive
Fc1ccc(-c2cn3cc(C(F)(F)F)cc(Cl)c3n2)cc1	inconclusive [activator, single point]
O=c1cc(CN2CCc3ccccc32)c2ccc(O)cc2o1	inconclusive [activator, single point]
C/C(=N\OC(=O)NC1CCCCC1)c1sc(-c2ccccc2)nc1C	inconclusive [activator, single point]
COc1ccc(-c2c[n+](CC(=O)N3c4ccccc4Sc4ccccc43)c3n2CCC3)cc1	inconclusive [activator, partial curve, poor fit]
Cc1cc(/C=C2/NC(=O)NC2=O)c(C)n1-c1sc2c(c1C#N)CCCC2	inconclusive [activator, single point]
O=C(Nc1ccc(NC(=O)c2cccs2)cn1)c1ccco1	inconclusive [activator, partial curve, poor fit]
CCCCCCCCCC(=O)O	inconclusive [activator, full curve, poor fit]
C=CCNC(=S)N/N=C(\C)c1cccc(NC(C)=O)c1	inactive
Cc1ccc(NC(=O)c2cc(NC(=O)c3ccco3)ccc2N2CCOCC2)cc1	inconclusive [activator, partial curve, poor fit]
O=C(CNC(=O)OCc1ccccc1)NCC(=O)N1CCCC1C(=O)OCc1ccccc1 (stereo not drawn)	inconclusive [activator, single point]
COc1ccc(-c2noc(CCC(=O)N3CCN(c4ccc(F)cc4)CC3)n2)cc1	inconclusive [activator, full curve, poor fit]
COc1ccc(C(=O)NC(C(=O)NCc2ccccc2OC)C(C)C)cc1 (stereo not drawn)	active: 0.92 µM

SMILES	Potency
CCCCC(Sc1nc(C)c(Cc2ccccc2)c(=O)[nH]1)C(=O)O (stereo not drawn)	inactive
COc1ccc(CC(=O)NCC2CCCN(Cc3ccc(F)c(OC)c3)C2)cc1 (stereo not drawn)	inconclusive [activator, single point]
O=C(Cc1ccc(Cl)cc1)Nc1cc(Cl)ccn1	inactive
CC(C)(C)n1nnnc1C(c1cccs1)N(Cc1ccc(Cl)cc1)CC1CCCO1 (stereo not drawn)	inconclusive [activator, partial curve]
CC(C)c1cccc(C(C)C)c1NC(=O)COc1nncc2ccccc12	inconclusive [activator, single point]
CC(O)Cc1cn([C@@H](CCCCN)C(=O)N2CCNCC2)nn1 (stereo partly drawn)	inconclusive [activator, full curve, poor fit]
CC1Cc2ccccc2N1C(=O)Cn1cnc2c1c(=O)n(C)c(=O)n2C (stereo not drawn)	inactive
NC(=O)C(=O)N/N=C/c1ccc([N+](=O)[O-])o1	active: 26.6 µM
O=C(Nc1nc2c(F)cc(F)cc2s1)c1ccc([N+](=O)[O-])o1	active: 11.6 µM
O=C(OC(C(=O)NCC1CCCO1)c1ccc(F)cc1)c1cccs1 (stereo not drawn)	inconclusive [activator, partial curve, poor fit]
CCCC1CCc2c(sc(NC(=O)c3cccs3)c2C(N)=O)C1 (stereo not drawn)	inconclusive [activator, single point]
CCOc1ccc(NC(=O)CCc2nnc3ccc(N4CCC(C)CC4)nn23)cc1	inconclusive [activator, partial curve, poor fit]
Cc1nn(-c2cc(C(F)(F)F)ccc2Cl)c2nc(C(Cl)(Cl)Cl)[nH]c(=O)c12	inconclusive [activator, single point]
FC(F)(F)c1cnc(N2CCN(C(=S)NCc3ccccc3)CC2)c(Cl)c1	inconclusive [activator, full curve]
COc1ccccc1-n1c(SCC(=O)Nc2ccc(Br)cc2)nc(O)cc1=O	inactive
CCOC(=O)N1CCN(Cc2nc3cc(NC(=O)CC(C)C)ccc3n2CC)CC1	inconclusive [activator, full curve, poor fit]
COc1ccc2cc(C(=O)C3CCCN(C(=O)c4ccnn4C)C3)ccc2c1 (stereo not drawn)	inconclusive [activator, partial curve, poor fit]
COc1ccccc1C(=O)NCC(c1cccs1)N1CCc2ccccc21 (stereo not drawn)	active: 18.4 µM
C=C(C)c1cccc(C(C)(C)NC(=O)Nc2ccc(C(C)=O)cc2)c1	inconclusive [activator, single point]
Cc1nn(-c2ccccc2)c(N)c1-c1ccccc1	inactive
CN(C)/C=C1\C(=O)NN=C1C(F)(F)F	inactive
CC(NC(=O)Cc1ccc(F)cc1)c1ccc(F)cc1 (stereo not drawn)	inactive
Cc1cccn2c(=O)c3cc(C(=O)NCc4ccccc4)c(=N)n(CCCN4CCOCC4)c3nc12	inactive

SMILES	Potency
O=C1CCCc2ccccc2N1Cc1c(Cl)cccc1Cl	inconclusive [activator, single point]
COc1c(N2CCN(C(=S)NC3CC4CCC3C4)C(C)C2)c(F)cc2c(=O)c(C(=O)O)cn(C3CC3)c12 (stereo not drawn)	inconclusive [activator, partial curve, poor fit]
COCCn1c(CN2CCN(C)CC2)nc2c1c(=O)n(C)c(=O)n2C	inactive
Cc1ccc(C(=O)Nc2ccc(Br)c(C(F)(F)F)c2)cc1	inconclusive [activator, partial curve]
COc1ccccc1CN1CC(C(=O)NCc2cc(C(C)C)no2)CCC1=O (stereo not drawn)	inactive
C/C=C/c1ccc(OCC(=O)Nc2ccc(OC)c(OC)c2)c(OC)c1	inactive
CCOc1ccc(N(CC(=O)Nc2ccc(C)c(C)c2)S(C)(=O)=O)cc1	inconclusive [activator, partial curve, poor fit]
O=C(OCC(=O)N1CCN(c2ccccc2)CC1)c1cc(Cl)ccc1[N+](=O)[O-]	inconclusive [activator, single point]
C=CCN1C(=O)C2(NC(=O)c3ccccc3N2)c2ccccc21 (stereo not drawn)	inconclusive [activator, single point]
O=C(O)CCc1ccc(-c2ccccc2)o1	inconclusive [activator, single point]
Cc1noc(C)c1C(=O)OCC(=O)Nc1ccccc1Oc1ccccc1	inconclusive [activator, partial curve, poor fit]
CCOC(=O)c1sc2nc(-c3ccccc3)ccc2c1N	inconclusive [activator, partial curve, poor fit]
CCc1c(C)nc2ncnn2c1N1CCCC(C(=O)NCCc2ccccc2)C1 (stereo not drawn)	inactive
Cc1ccc2cccc(NC(=S)NC(=O)c3ccccc3)c2n1	inconclusive [activator, partial curve, poor fit]
CCSc1nc2c(c(=O)[nH]c(=O)n2C)n1C/C=C(/C)Cl	inactive
CCOc1ccc(NC(=S)NCCCc2ccccc2)cc1	inconclusive [activator, partial curve, poor fit]
COc1ccc2c(c1OC)C(=O)N1C2SC(C)(C)[C@H]1C(=O)NCC(C)C (stereo partly drawn)	inactive
COc1ccc(/C(=C/Nc2cccc(Br)c2)C(C)=O)cc1OC	inactive
CCC(C)N1C(=O)S/C(=C/c2ccc3c(c2)n(C)c(=O)n3C)C1=O (stereo not drawn)	inconclusive [activator, single point]
O=C1c2ccccc2C(O)(c2ccccc2)N1c1ccc([N+](=O)[O-])cc1Cl (stereo not drawn)	inconclusive [activator, single point]
CCN(C[C@H]1N[C@@](Cc2ccccc2)(C(=O)OC)[C@H]2C(=O)N(Cc3ccccc3)C(=O)[C@@H]12)S(=O)(=O)c1ccc(OC(F)(F)F)cc1	inconclusive [activator, single point]
CCOc1cccc(NC(=O)C2CC(=O)N(C)C(=Nc3cccc(F)c3)S2)c1 (stereo not drawn)	inconclusive [activator, full curve, poor fit]
